Reference: US20120052007A1, “PERIPHERAL BLOOD SPARC BINDING ANTIBODIES AND USES THEREOF” (ABRAXIS BIOSCIENCE, LLC, priority 2010, published 2012)

T1: HTI SPARC (Homo sapiens, UniProt P09486)
T1 construct: human platelet SPARC (HTI-SPARC); tissue Hematologic Technologies; host or cells: human platelets
T1 sequence (P09486 18-303): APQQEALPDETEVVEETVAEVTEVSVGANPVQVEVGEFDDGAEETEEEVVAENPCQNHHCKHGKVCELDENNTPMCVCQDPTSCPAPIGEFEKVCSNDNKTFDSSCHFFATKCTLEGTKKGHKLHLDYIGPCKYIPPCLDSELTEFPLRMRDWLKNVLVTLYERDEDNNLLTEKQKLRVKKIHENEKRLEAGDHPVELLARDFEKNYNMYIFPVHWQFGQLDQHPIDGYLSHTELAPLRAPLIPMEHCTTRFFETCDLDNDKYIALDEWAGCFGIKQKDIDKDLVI

T2: human platelet SPARC (HTI-SPARC) (Homo sapiens, UniProt P09486)
T2 construct: human platelet SPARC (HTI-SPARC); tissue Hematologic Technologies; host or cells: human platelets
T2 sequence (P09486 18-303): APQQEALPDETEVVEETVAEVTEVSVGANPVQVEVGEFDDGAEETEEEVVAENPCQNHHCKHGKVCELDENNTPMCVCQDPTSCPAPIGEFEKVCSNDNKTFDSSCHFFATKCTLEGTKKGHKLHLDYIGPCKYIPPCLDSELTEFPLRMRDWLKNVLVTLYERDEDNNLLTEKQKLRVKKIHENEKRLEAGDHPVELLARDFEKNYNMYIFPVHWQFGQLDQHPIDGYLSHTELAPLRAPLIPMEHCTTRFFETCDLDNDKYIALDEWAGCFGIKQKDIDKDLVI

T3: SPARC (Homo sapiens, UniProt P09486)
T3 sequence (P09486 18-303): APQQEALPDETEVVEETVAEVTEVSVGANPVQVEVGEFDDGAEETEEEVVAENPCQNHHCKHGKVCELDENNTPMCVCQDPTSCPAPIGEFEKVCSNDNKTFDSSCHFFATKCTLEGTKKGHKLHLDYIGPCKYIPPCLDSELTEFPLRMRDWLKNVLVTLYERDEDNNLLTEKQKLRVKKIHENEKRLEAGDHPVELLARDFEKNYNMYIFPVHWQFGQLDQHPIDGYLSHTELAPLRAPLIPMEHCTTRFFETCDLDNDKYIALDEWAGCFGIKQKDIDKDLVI

T4: recombinant human SPARC (Bio1-SPARC) (Homo sapiens, UniProt P09486)
T4 sequence (P09486 18-303): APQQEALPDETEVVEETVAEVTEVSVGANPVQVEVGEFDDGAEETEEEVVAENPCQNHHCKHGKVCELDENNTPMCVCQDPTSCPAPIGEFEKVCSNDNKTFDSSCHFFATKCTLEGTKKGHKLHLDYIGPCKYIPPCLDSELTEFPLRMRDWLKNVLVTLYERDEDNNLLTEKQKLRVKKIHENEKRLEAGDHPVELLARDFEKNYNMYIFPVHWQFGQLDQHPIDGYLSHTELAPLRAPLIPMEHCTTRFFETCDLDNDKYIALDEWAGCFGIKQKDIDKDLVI

T5: Bio1-SPARC (Homo sapiens, UniProt P09486)
T5 sequence (P09486 18-303): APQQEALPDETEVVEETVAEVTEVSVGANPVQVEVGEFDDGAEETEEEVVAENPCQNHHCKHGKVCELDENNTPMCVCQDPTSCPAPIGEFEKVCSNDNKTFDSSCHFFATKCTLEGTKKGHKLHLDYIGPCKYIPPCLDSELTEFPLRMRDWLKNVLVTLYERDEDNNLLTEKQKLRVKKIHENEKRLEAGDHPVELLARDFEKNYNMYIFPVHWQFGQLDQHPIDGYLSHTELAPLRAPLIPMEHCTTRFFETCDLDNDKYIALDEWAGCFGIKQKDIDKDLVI

T6: mouse SPARC (Mus musculus, UniProt P07214)
T6 sequence (P07214 18-302): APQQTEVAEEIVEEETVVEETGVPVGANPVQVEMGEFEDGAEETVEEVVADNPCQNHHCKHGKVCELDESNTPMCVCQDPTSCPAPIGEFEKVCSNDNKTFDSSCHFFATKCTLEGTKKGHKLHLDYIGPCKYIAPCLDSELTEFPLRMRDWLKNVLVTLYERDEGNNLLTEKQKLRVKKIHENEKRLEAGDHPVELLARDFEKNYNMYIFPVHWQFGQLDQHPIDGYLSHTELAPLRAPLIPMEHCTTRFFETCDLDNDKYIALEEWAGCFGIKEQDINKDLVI

T7: denatured human SPARC (Homo sapiens, UniProt P09486)
T7 sequence (P09486 18-303): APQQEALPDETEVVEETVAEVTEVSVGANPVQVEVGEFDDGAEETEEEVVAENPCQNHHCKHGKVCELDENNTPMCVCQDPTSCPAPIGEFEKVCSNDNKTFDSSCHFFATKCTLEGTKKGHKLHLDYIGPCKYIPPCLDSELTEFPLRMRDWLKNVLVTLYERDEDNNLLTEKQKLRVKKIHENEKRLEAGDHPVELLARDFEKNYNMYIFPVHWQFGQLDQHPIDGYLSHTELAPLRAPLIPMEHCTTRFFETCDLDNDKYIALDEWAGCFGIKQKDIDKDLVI

B1: Fab16: human SPARC binding Fab from phage display library, SEQ ID NO 16; the Fab region of Imm14 (protein)
chain: QVQLVQSGGGLIQPGGSLRLSCAASGFTVSSNYMSWVRQAPGKGLEWVSVIYSGGSTYYADSVKGRFTISRDNSKNTLYLQMNSLRAEDTAVYYCARGIAAAGLDYWGQGTLVTVSSASTKGPSVFPLAPSSKSTSGGTAALGCLVKDYFPEPVTVSWNSGALTSGVHTFPAVLQSSGLYSLSSVVTVPSSSLGTQTYICNVNHKPSNTKVDKKVEPKSCDKTSELVLTQPPSVSGTPGQRVTISCSGSSSNIGSNYVYWYQQLPGTAPKLLIYRNNQRPSGVPDRFSGSKSGTSASLAISGLRSEDEADYYCAAWDDSLSGWVFGGGTKLTVLGQPKAAPSVTLFPPSSEELQANKATLVCLISDFYPGAVTVAWKADGSPVKAGVETTTPSKQSNNKYAASSYLSLTPEQWKSHRSYSCQVTHEGSTVEKTVAPTECS
B2: Imm14: fully human anti-human SPARC antibody created from Fab16, IgG1 (κ) (antibody, V domains shown)
VH: QVQLVQSGGGLIQPGGSLRLSCAASGFTVSSNYMSWVRQAPGKGLEWVSVIYSGGSTYYADSVKGRFTISRDNSKNTLYLQMNSLRAEDTAVYYCARGIAAAGLDYWGQGTLVTVSS
VL: ELVLTQPPSVSGTPGQRVTISCSGSSSNIGSNYVYWYQQLPGTAPKLLIYRNNQRPSGVPDRFSGSKSGTSASLAISGLRSEDEADYYCAAWDDSLSGWVFGGGTKLTVL

Assays:
HTI SPARC = target: T1, HTI SPARC; assay: Surface plasmon resonance (Biacore 3000), immobilized HTI SPARC; assay type: binding; settings: HTI SPARC on sensorchip
Source text: (§1) ELISA assays were also used to characterize the SPARC binding of the fully human SPARC binding antibodies, Imm13 and Imm14. […] Surface plasmon resonance binding assays, performed on the Biacore 3000® (GE/Biacore International AB, Uppsala, Sweden), tested the binding of Fab 16 to both varieties of SPARC immobilized on a sensorchip (FIGS. 11 and 12).

[1] = target: T2, human platelet SPARC (HTI-SPARC); assay: ELISA binding to human platelet SPARC (HTI-SPARC); settings: protein ELISA (FIG. 10)
Description: (§2) The ability of Imm1 through Imm12 (the mouse-derived anti-human SPARC antibodies) to bind recombinant human SPARC (Bio 1-SPARC) was characterized by multiple ELISA assays performed at various stages of purification. FIG. 7 presents the results of an ELISA assay performed on a serial dilution (1:1, 1:10, and 1:100) of antibody supernatants prior to purification. […] Another ELISA assay was performed with the purified antibodies (FIG. 8) at concentrations of 0.04 μg/mL, 0.2 μg/mL, 1 μg/mL, and 5 μg/mL. […] An additional ELISA was performed to compare the binding of the mouse derived Immseries antibodies to two different varieties of SPARC: Bio1-SPARC, and human platelet SPARC (HTI-SPARC) (FIG. 9).
as §1

SPARC [2] = target: T3, SPARC; assay: ELISA verification of SPARC binding activity of Fab regions; settings: purified Fab
Source text: A pASK84 expression vector (FIG. 1) was used to express the Fab regions of the resulting antibodies, designated Imm1 through Imm12. The Fab regions were targeted to the periplasm where they were collected and subsequently purified via activity chromatography on a protein A sepharose column. Identity was verified by Western blot and SPARC binding activity was verified by ELISA.
Imm13 and Imm14 are fully human anti-human SPARC antibodies which were generated using a human phage display library. SPARC was panned against the commercial human Fab phage display library HuFabL® (Creative Biolabs, Shirley, N.Y.). SPARC binding activity was verified by ELISA for these two Fab molecules.

[3] = target: T4, recombinant human SPARC (Bio1-SPARC); assay: ELISA binding to recombinant human SPARC (Bio1-SPARC); settings: protein ELISA (FIG. 10)
Description: as §2, §1

Bio1-SPARC = target: T5, Bio1-SPARC; assay: Surface plasmon resonance (Biacore 3000), immobilized Bio1-SPARC; assay type: binding; settings: Bio1-SPARC on sensorchip
Source text: as §1

[4] = test system: LL/2 (Lewis Lung Carcinoma); assay: LL/2 Lewis Lung Carcinoma survival / lung metastasis model; assay type: in vivo, mice; settings: 200 μg/mouse i.p. twice weekly for 4 weeks, versus mouse control IgG
Description: C57BL male mice (approx. 6 weeks old) were weighed, and then injected intravenously with approximately 1×10^6 cells (approximately 0.1 mL) of LL/2 (Lewis Lung Carcinoma) with 25-gauge needle. A minimum of 10 animals was used per group. Twice weekly for 4 weeks, each animal in all groups received 200 μg/mouse of a test antibody or mouse IgG. These test articles/antibodies were dosed via intra-abdominal injection into the peritoneal cavity with a 25-27 gauge needle. The first dose was administered within 30 minutes of tumor cell injection.
Animals were weighed prior to tumor cell injection, and twice weekly prior to dosing. All animals were examined twice daily for mortality/morbidity. At the end of the experiment, the mice were killed, and primary tumors and lungs were removed, fixed, and embedded. Euthanized animals and any animals found dead prior to rigor mortis were necropsied. Plasma and lungs from all animals were collected and weighed at termination. Lungs were infused with and then immersed in 10% Neutral buffered formalin. Tissues were stored for additional gross and histopathologic analysis.
Animals were administered either mHTI, Imm12, or Imm14. A negative control group was administered mIgG. The antibodies were formulated in PBS and were administered in at dose of 200 μg/mouse, twice weekly, for four weeks. The survival of the animals was then recorded over […].

mouse SPARC = target: T6, mouse SPARC; assay: ELISA binding to murine SPARC (FIG. 16); settings: ELISA (FIG. 16)
denatured human SPARC = target: T7, denatured human SPARC; assay: Western blot against denatured SPARC; assay type: binding; settings: SDS polyacrylamide gel
Source text: Western blotting was used to determine whether the Imm series antibodies bind to linear or conformational epitopes. In this analysis, SPARC protein was run on a polyacrylamide gel in the presence of SDS. Accordingly, the SPARC protein on the gel was in its denatured form. The Imm series antibodies were used as primary antibodies and were then probed with goat anti-mouse IgG. BSA was used as a negative control.

HT29 colon xenografts = assay: Tumor localization of Alexa 680 labeled antibodies in HT29 xenografts; assay type: in vivo, mice; settings: 200 ug/mouse i.v. day 1, Alexa 680 label, followed 36 days
Description: Nude mice implanted with subcutaneous HT29 colon xenografts were treated with Imm series antibodies labeled with labeled with Alexa 680 fluorescent dye at dose of 200 ug/mouse. The labeled Imm antibodies were formulated in saline and administered intravenously on day 1. The fluorescent signal was followed in these mice over the course of 36 days.

SPARC [5] = target: T3, SPARC; assay: ELISA comparing Imm11, Imm12, Imm13, Imm14 binding to human SPARC; settings: ELISA (FIG. 13)
Description: An ELISA assay was also performed to directly compare the SPARC binding capabilities of selected mouse-derived anti human SPARC antibodies, Imm11 and Imm12, to the fully human Imm13 and Imm14, the results of which are presented in FIG. 13.

SPARC [6] = target: T3, SPARC; assay: ELISA binding to human SPARC (FIG. 16); settings: ELISA (FIG. 16)
[7] = test system: recombinant human SPARC protein; assay: Tube Formation Assay (AngioKit) with SPARC and SPARC binding antibodies; assay type: cell-based; settings: 300 μg/mL antibody with 10 μg/mL recombinant human SPARC
Description: This assay was performed using the TCS Cellworks human AngioKit model kit (TCS-ZHA-1000, TCS Cell Works, Buckingham, UK) as described in Example 10 above. The media contained 10 μg/mL recombinant human SPARC protein. The media also contained 300 μg/mL of one of the above prepared mouse SPARC binding monoclonal antibodies (Imm12, Imm14, mHTI), or a control (mouse IgG).
To examine the effect of SPARC on tubule formation, and interference with that function by SPARC binding monoclonal antibodies, the number of tubules formed and their length was evaluated by light microscopy.

Molecule | Kd (HTI SPARC) [µM] | Kd [1] [µM] | SPARC binding activity (ELISA) (SPARC [2]) | Kd [3] [µM] | Kd (Bio1-SPARC) [µM] | inhibition of lung LL/2 metastasis [4] | binding to mouse SPARC (mouse SPARC) | binding to denatured SPARC (denatured human SPARC) | localization at the tumor site (HT29 colon xenografts) | affinity for SPARC relative to mouse derived Imm11 and Imm12 (SPARC [5]) | binding to human SPARC (SPARC [6]) | effect on SPARC-induced tubule formation [7]
B1 | 0.0762 | 0.011 | verified | 0.007 | 0.132 | – | – | – | – | – | – | –
B2 | – | – | – | – | – | did not inhibit lung LL/2 metastasis | not mouse SPARC | bind denatured SPARC | do not localize at the tumor site | lower affinity | specifically bind to human SPARC | only very slight formation of very short tubules
